The Kd is the concentration at which binding is half-saturated.

In the experiment the target is cyclic V2 peptide derived from C06980v0c22 (subtype C) (HIV-1 C06980v0c22 (subtype C), cyclic; amino-terminal biotin). In words: SPR; 1 mM MnCl2.

B1: recombinant soluble α4β7 heterodimer (complex)
chain 1: not shown
chain 2: ELDAKIPSTGDATEWRNPHLSMLGSCQPAPSCQKCILSHPSCAWCKQLNFTASGEAEARRCARREELLARGCPLEELEEPRGQQEVLQDQPLSQGARGEGATQLAPQRVRVTLRPGEPQQLQVRFLRAEGYPVDLYYLMDLSYSMKDDLERVRQLGHALLVRLQEVTHSVRIGFGSFVDKTVLPFVSTVPSKLRHPCPTRLERCQSPFSFHHVLSLTGDAQAFEREVGRQSVSGNLDSPEGGFDAILQAALCQEQIGWRNVSRLLVFTSDDTFHTAGDGKLGGIFMPSDGHCHLDSNGLYSRSTEFDYPSVGQVAQALSAANIQPIFAVTSAALPVYQELSKLIPKSAVGELSEDSSNVVQLIMDAYNSLSSTVTLEHSSLPPGVHISYESQCEGPEKREGKAEDRGQCNHVRINQTVTFWVSLQATHCLPEPHLLRLRALGFSEELIVELHTLCDCNCSDTQPQAPHCSDGQGHLQCGVCSCAPGRLGRLCECSVAELSSPDLESGCRAPNGTGPLCSGKGHCQCGRCSCSGQSSGHLCECDDASCERHEGILCGGFGRCQCGVCHCHANRTGRACECSGDMDSCISPEGGLCSGHGRCKCNRCQCLDGYYGALCDQCPGCKTPCERHRDCAECGAFRTGPLATNCSTACAHTNVTLALAPILDDGWCKERTLDNQLFFFLVEDDARGTVVLRVRPQEKGADH
modifications: disulfide bond joining the acid-base clasp | disulfide bond joining the acid-base clasp
Molecule B1 displayed a Kd of 1.58 nM.

The values above are taken from article PMC6130882 (2018).
